# Results reported in the antibiotic and cytotoxicity screens of Wong et al. (2023).
# The other results are listed elsewhere or left out.
# Legend:
# [1] = test system: HSkMC (human skeletal muscle cells); assay: cytotoxicity call (relative viability < 0.9); conditions: 10 µM
# [2] = test system: HepG2; assay: cytotoxicity call (relative viability < 0.9); conditions: 10 µM
# [3] = test system: S. aureus RN4220; assay: growth inhibition call (relative growth <= 0.2); conditions: 50 µM
SMILES,cytotoxicity call [1],cytotoxicity call [2],growth inhibition call [3]
COc1ccc(S(=O)(=O)Nc2ccc3c(c2)C(=O)N([C@@H](C)CO)C[C@H](C)[C@@H](CN(C)Cc2ccc(-c4ccccc4)cc2)O3)cc1,inactive,active,inactive
CO[C@H](CN(C)C(=O)C1CCOCC1)[C@@H](C)CN(C(=O)Nc1ccc(C(F)(F)F)cc1)[C@@H](C)CO,inactive,inactive,active
C[C@@H]1CCCCO[C@@H](CN(C)C(=O)Cc2ccccc2)[C@@H](C)CN([C@@H](C)CO)C(=O)c2cc(NC(=O)NC3CCCCC3)ccc2O1,inactive,inactive,inactive
C=CCOC(=O)[C@@H]1[C@@H]2C=C[C@]3(O2)[C@H](C(=O)N(CC=C)Cc2ccccc2)N(c2cccc(Cl)c2CO)C(=O)[C@@H]13,inactive,inactive,inactive
COCCOC(=O)N1C(=O)[C@@]2(c3ccccc31)[C@H](c1ccc(OCCO)cc1)N1[C@H](c3ccccc3)[C@H](c3ccccc3)OC(=O)[C@H]1[C@@H]2C(=O)N1CCCCCCC1,inactive,inactive,inactive
CC(=O)N1CCN(C(=O)c2ccc(NCc3ccccc3Cl)c(S(=O)(=O)Nc3cccc(C(F)(F)F)c3)c2)CC1,inactive,inactive,inactive
CCCC#Cc1ccc2c(c1)O[C@@H](CN(C)Cc1ccc3c(c1)OCO3)[C@@H](C)CN([C@H](C)CO)S2(=O)=O,inactive,inactive,inactive
O=C(C[C@H]1CC[C@@H]2[C@H](COC[C@@H](O)CN2S(=O)(=O)c2cccc(Cl)c2)O1)NCCCN1CCOCC1,inactive,inactive,inactive
C[C@H](CO)N1C[C@H](C)[C@@H](CN(C)S(C)(=O)=O)Oc2ccc(NC(=O)Nc3ccc4c(c3)OCO4)cc2C1=O,inactive,inactive,inactive
CN(C)CCCNC(=O)C[C@H]1CC[C@@H]2[C@@H](COc3ccc(NC(=O)c4ccc5c(c4)OCO5)cc3C(=O)N2C)O1,inactive,inactive,inactive
CC(=O)CCCCn1c(=O)c2c(ncn2C)n(C)c1=O,inactive,inactive,inactive
CNC1C(O)C(NC)C2OC3(O)C(=O)CC(C)OC3OC2C1O.Cl.Cl (stereo not drawn),inactive,inactive,inactive
C[C@@H]1CN([C@H](C)CO)C(=O)Cc2cc(NS(C)(=O)=O)ccc2O[C@H]1CN(C)C(=O)Nc1ccccc1,inactive,inactive,inactive
COc1ccc2c3c([nH]c2c1)[C@@H](CO)N(CC1CCCC1)C[C@]13CCN(CC1)C(=O)Nc1cccc(c1)F,inactive,inactive,inactive
O=C(O)CCNC(=O)c1cncc(O)c1,inactive,inactive,inactive
C[C@H](C(=O)N(C)C[C@@H]1OCc2ccccc2-c2c(n(C)c3ccccc23)C(=O)N([C@H](C)CO)C[C@H]1C)c1ccccc1,inactive,inactive,inactive
CNC(=O)CN1CCOC[C@]2(CCCN(C(=O)c3ccn(C)n3)C2)C1,inactive,inactive,inactive
C[C@@H]1CN([C@@H](C)CO)C(=O)Cc2cc(NC(=O)CCCCCC(=O)Nc3ccccc3N)ccc2O[C@H]1CN(C)C(=O)Nc1ccccc1,inactive,inactive,inactive
O=C(O)CCC(=O)N[C@H]1CCCCNC1=O,inactive,inactive,inactive
COc1ccc(cc1)S(=O)(=O)N1C[C@]2(C1)CN([C@@H](CO)c1c2c2ccc(cc2n1C)OC)C(=O)c1cccnc1,inactive,inactive,inactive
CN1CCN(C(=O)C[C@H]2CC[C@H]3[C@@H](COC[C@@H](O)CN3CC3CCCC3)O2)CC1,inactive,inactive,inactive
CO[C@H](CN(C)S(=O)(=O)c1ccc(C)cc1)[C@H](C)CN([C@H](C)CO)S(=O)(=O)c1cccc(Cl)c1,inactive,inactive,inactive
CCOC(=O)CC1(N)CCCCC1,inactive,inactive,inactive
C[C@H]1COC(=O)[C@@H](NC(=O)OCC2c3ccccc3-c3ccccc32)CC/C=C/C[C@H](CC(=O)N(CCOC(=O)NCCCCCC(=O)NO)Cc2ccccc2)C(=O)N1,inactive,inactive,inactive
Cc1noc(C)c1NC(=O)N(C)C[C@@H]1OCCCC[C@H](C)Oc2ccc(NC(=O)c3ccccc3)cc2C(=O)N([C@H](C)CO)C[C@@H]1C,inactive,inactive,inactive
COc1cccc(S(=O)(=O)N2C[C@@H](O)COC[C@@H]3O[C@H](CC(=O)N4CCN(C)CC4)CC[C@H]32)c1,inactive,inactive,inactive
